Measurements reported in a melting point compilation (Tetko et al.; mined from patent text by program, amines drawn as free bases though some values may be those of a salt).

Compound CCOC(=O)N1CCN(c2nccc(Oc3ccc(NC(=O)c4cc(F)cc(N5CCCCC5)c4)c4ccccc34)n2)CC1 has a melting point of 105 to 106 °C.
